In PubChem BioAssay AID743262 (National Center for Advancing Translational Sciences (NCATS), 2014):
Screen size: about 1,300 compounds; about 25 (2%) were called active. About 9% were inconclusive and are not listed. Calls follow the shape of the dose curve; as a rule, active = well fitted activation curve with a large enough effect; inconclusive = small, poorly fitted or top-dose-only effect; inactive = flat fitted curve, though single readings scatter. This is one part of the list.

molecular target: Glucagon-like peptide 1 receptor (Homo sapiens) (UniProt P43220); experiment: qHTS of GLP-1 Receptor Agonists: Hit Validation; details: HEK293 GLP-1R, cAMP-response luciferase, 4-6 h; series mostly up to 46.1 µM; activation: at the top concentration; also: % of control where 0% means no effect
Summary of the method: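 Luminescence from a cAMP-responsive luciferase reporter was read 12 min after detection reagent at RT. Before that, HEK293 cells stably expressing GLP-1R plus reporter, seeded 12 h earlier, were exposed to compound for 4-6 hr at 37 deg C.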

Chain of UniProt P43220 (P43220 whole entry, looked up): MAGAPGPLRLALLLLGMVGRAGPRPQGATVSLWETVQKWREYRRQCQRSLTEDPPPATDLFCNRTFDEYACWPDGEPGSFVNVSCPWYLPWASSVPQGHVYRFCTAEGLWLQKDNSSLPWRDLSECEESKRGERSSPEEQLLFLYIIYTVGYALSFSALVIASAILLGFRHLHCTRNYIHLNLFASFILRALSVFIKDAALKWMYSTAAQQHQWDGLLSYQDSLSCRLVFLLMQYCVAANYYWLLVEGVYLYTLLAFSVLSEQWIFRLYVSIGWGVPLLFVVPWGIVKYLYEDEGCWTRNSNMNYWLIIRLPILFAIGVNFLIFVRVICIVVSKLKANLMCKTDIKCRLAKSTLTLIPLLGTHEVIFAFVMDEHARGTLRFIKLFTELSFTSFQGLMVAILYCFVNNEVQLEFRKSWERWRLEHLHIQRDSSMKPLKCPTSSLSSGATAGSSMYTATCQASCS

activation, inactive:
N#C/C(=C1\SCC(c2ccccc2Cl)S1)n1ccnc1 (centres undefined) -0.484%
CCCn1c2ccccc2c2nnc(SC(CC)C(=O)Nc3cc(C)on3)nc21 (centres undefined) 8.62%
S=c1[nH]nc(-c2ccc3ccccc3n2)n1-c1ccc2c(c1)OCCO2 2.41%
COc1ccccc1Nc1cc(C(=O)NCc2cccnc2)c2ccccc2n1 1.83%
O=C(c1ccc(COc2ccccc2Br)cc1)N1CCCCC1 2.86%
Cn1c2ccc(F)cc2c2nnc(SCC(=O)Nc3cccc(O)c3)nc21 5.35%
Cc1cccc(-c2nnc3sc(-c4ccccc4C)nn23)c1 21%
COC(=O)c1ccc(CSc2nc3ccccc3c(=O)n2-c2ccccc2)o1 19.4%
Cc1ccc(CNc2ccc([N+](=O)[O-])cc2C(N)=O)cc1 4.76%
CC1CCN(CCC(=O)Nc2ccc(Br)cc2)CC1 -1.4%
COc1cc2c(cc1OC)C(COc1ccccc1OC)N(C(=O)c1ccco1)CC2 (centres undefined) 6.89%
O=C(OCc1ccccc1C(F)(F)F)c1cc([N+](=O)[O-])ccc1N1CCOCC1 9.96%
CCOc1cc(CNC(=O)CCCn2c(=O)c3cccn3c3cccnc32)cc(OCC)c1OCC 12.7%
Cn1ccnc1SCC(=O)Nc1ccc(Cl)cn1 -1.47%
CCOC(=O)c1cc(-c2ccccc2)sc1NC(=O)C(C)Sc1nnc(C)s1 (centres undefined) 3.04%
COc1cccc(C(NC(C)=O)c2nc(-c3cccc(C#N)c3)cs2)c1 (centres undefined) 2.49%
Cc1cc(Br)c2c(c1)=C(c1sc(N3CCCCCC3)nc1O)C(=O)N=2 3.16%
CCCn1c(=O)c2c(C(=O)OCC)cc(-c3ccco3)nc2n(CCC)c1=O 2.78%
O=[N+]([O-])c1cccc(C(=NCc2ccccc2)NO)c1 1.52%
COc1ccc(CCN2C(=O)NC(NC(=O)CCc3ccccc3)(C(F)(F)F)C2=O)cc1OC (centres undefined) -2.07%
O=c1ccc2ccc(OCCOc3cccc(Cl)c3)cc2o1 6.88%
COc1cc(/C=C2\CC/C(=C\c3ccc(OCCO)c(OC)c3)C2=O)ccc1OCCO 16%
Cc1cccc(NC2=NCC(=O)N2Cc2ccccc2)c1 1.4%
Cc1cc(C)c(C)c(S(=O)(=O)Nc2cccc(-n3cnnn3)c2)c1C -0.249%
COc1cc(/C=C2\S/C(=N/S(=O)(=O)c3ccccc3)NC2=O)c([N+](=O)[O-])cc1OC 5.68%
CCCCn1cnc2c(SCc3ccc(Br)cc3)nc(N)nc21 14%
Nc1c2c(nc3sc4c(c13)CCCC4)-c1ccccc1CC2 7.69%
COc1ccc(/C=C2\Sc3ccc(C(=O)NC4CC4)cc3N(C)C2=O)cc1OC 24.1%
CCOc1ccc(-n2c(-c3ccccc3)c(C)n3c4c(=O)n(C)c(=O)n(C)c4nc23)cc1 -0.209%
COc1ccc(CCn2c(N)cc(=O)[nH]c2=S)cc1OC 14.7%
Cc1cc(C(F)F)n2ncc(C(=O)NCc3ccc(F)cc3)c2n1 5.01%
CCOC(=O)c1c(C)[nH]c(C2=NNC(=NC(C)COC)SC2)c1C (centres undefined) -0.776%
Cc1cc(Cl)c2oc(C(=O)N(C)Cc3cc(C)[nH]n3)c(C)c2c1 22.9%
CCCCN(CC)C(=O)c1cc2cc3ccc(Cl)cc3nc2o1 7.33%
CN(C)CCNc1ncnc2c1sc1nc(N3CCCC3)c3c(c12)CC(C)(C)OC3 18.5%
Cc1ccc(NC(=O)Nc2ccc([N+](=O)[O-])cc2)nc1 -0.803%
COc1ccc(OC)c(/C=N/NC(=S)NCCc2ccccc2)c1 5.93%
Cn1c2ccc(F)cc2c2ncn(Cc3ccco3)c(=O)c21 6.87%
COc1ccccc1C/C(N)=N/OC(=O)c1ccc(C)c([N+](=O)[O-])c1 27.5%
COc1ccc(S(=O)(=O)N2CCOC2CNC(=O)C(=O)NCCc2ccc(OC)c(OC)c2)cc1 (centres undefined) 7.95%
CCOC(=O)c1c(C)[nH]c(C(=O)OCc2c(C)noc2C)c1C 5.11%
O=C(COc1ccccc1Br)Nc1ccc2c(c1)OCCCO2 2.18%
CCOC(=O)/C(=C/C=C1\Sc2ccccc2N1CC)C(C)=O 16.3%
C=C(Cl)COc1ccc2c(CCC)cc(=O)oc2c1 3.86%
CC(C)N(C)c1ncnc2c1ncn2[C@H]1CN(Cc2cccs2)C[C@@H](CO)O1 8.33%
COc1cc(/C=C2\SC(=Nc3ccc(O)cc3)NC2=O)cc(OC)c1O 21.7%
Cc1ccccc1Oc1nc2ccccn2c(=O)c1/C=C(\C#N)C(=O)Nc1c(C)n(C)n(-c2ccccc2)c1=O 26.3%
CCN1CCN(c2nc3sc4c(c3c3ncnn23)CC(C)CC4)CC1 (centres undefined) 5.78%
COCCn1c(=O)[nH]c(=O)c2c1nc(-c1cc(Br)c3c(c1)OCO3)n2Cc1ccccc1 5.91%
CN(c1ccccc1)c1nc(N)c([N+](=O)[O-])c(NCc2ccccc2)n1 15.6%
C[C@@H](c1ncncc1F)C(O)(Cn1cncn1)c1ccc(F)cc1F (some centres undefined) -0.544%
CCCCn1cnc2c(SCc3ccc(Cl)cc3)nc(N)nc21 12.5%
O=S(=O)(c1ccc(Br)cc1)c1nc(-c2ccco2)oc1NCCCn1ccnc1 0.267%
OC(CNCc1ccc(Cl)c(Cl)c1)c1ccccc1 (centres undefined) 20%
COc1ccccc1Cc1c(-c2ccc(OC)c(OC)c2)nc2ccc(C)cn12 9.89%
Cc1ccc(NC(=O)Cc2nc(COC(=O)c3c(F)cccc3Cl)cs2)cc1 0.626%
COc1cc(Cl)c(C)cc1NC(=O)CN(C)Cc1cccc(OC)c1OC 3.34%
O=C(NCc1ccc(F)cc1)c1cc(C2CCCN(C(=O)c3cccs3)C2)on1 (centres undefined) 2.19%
CC(C)OCCCNCC(O)c1ccccc1 (centres undefined) 16.5%
COc1ccc(-c2nc(C#N)c(N3CCCCCC3)o2)cc1OC 23.8%
CC1(C)CCc2cc(-c3ccn(S(=O)(=O)c4ccccc4Cl)n3)ccc2O1 2.77%
C=C(C)COc1ccc2c(CC)cc(=O)oc2c1C 5.78%
COc1cccc(-c2cnc3c(NC=O)cc(-c4ccc(N(C)C)cc4)cn23)c1 27.5%
O=C1CC(c2ccc(F)cc2)Sc2ccccc2N1 (centres undefined) 2.5%
Cc1ccc(-c2nnc3c4ccccc4c(C)nn23)cc1S(=O)(=O)N1CCN(CCO)CC1 23.3%
CCOC(=O)C(C)Sc1nc(-c2ccccc2)ccc1C#N (centres undefined) 5.89%
CCN(CC)CCNc1ncnc2c1sc1nc(N3CCCC3)c3c(c12)CC(C)(C)OC3 21.4%
CCN(CC)/C(=N\S(=O)(=O)c1ccc(F)cc1)c1ccccc1 -0.814%
COC(=O)C1=CN(Cc2ccc(OC)c(OC)c2)C=C(C(=O)OC)C1c1cccc(F)c1 2.23%
COc1ccccc1Nc1nc(Cl)nc(Nc2ccccc2OC)n1 7.81%
O=C(O)c1cccc(CSc2ncccn2)c1 -1.14%
CCN1/C(=C/C(=S)Nc2ccccc2)Sc2ccccc21 1.16%
c1ccc(Cn2c(-c3cncs3)nc3ccccc32)cc1 2.44%
COc1cccc(-n2c(SCC(=O)Nc3c(C)cc(C)cc3C)nc3c([nH]c4ccccc43)c2=O)c1 2.93%
COc1ccc(C(N)c2nccc3cc(OC)c(OC)cc23)cc1OC (centres undefined) 9.93%
CN(C)CCNC(=O)c1cccc(-c2cnc3c(NC=O)cc(-c4cccc(F)c4)cn23)c1 7.6%
COC(=O)[C@@H]1CCCN1C(=O)c1cc(COc2cccc3cccnc23)on1 -0.35%
CCn1c(SCC(=O)N/N=C/c2ccc(OC)c(OC)c2)nc2ccccc21 18.6%
COc1ccc(CN(C)C(=O)c2oc3ccccc3c2CSC)cc1F 5.49%
O=c1cc(N2CCCCC2)nc2n1CCCS2 -0.517%
CCOC(=O)c1c(C)[nH]c(C(=O)N2CCc3cc(OC)c(OC)cc3C2)c1C 7.6%
CC(C)c1nc(Cl)c(C#N)c2c1COC(C)(C)C2 18%
O=C(CCCCn1c(=O)c2ccccc2n(Cc2ccc(F)cc2Cl)c1=O)NCc1ccco1 3.66%
COc1ccc(N2CCN(C(=O)CSc3ccccc3)CC2)cc1 24.8%
CCC(=O)N1CCc2cc(OC)c(OC)cc2C1COc1ccc(OC)cc1 (centres undefined) 5.06%
COc1cccc(CNC(=O)c2cccnc2Sc2ccccc2)c1 -0.259%
Cn1c(=N)n(CC(=O)C(C)(C)C)c2ccccc21 1.55%
C=CCSc1cc(C)nc2c(-c3ccccc3)c(C)nn12 8%
CC(=O)Nc1ccc(NC(=O)c2cc(C3CC3)nc3c2cnn3C(C)C)cc1 2.18%
CC(=O)c1cccc(S(=O)(=O)N2CCCC(c3nc(-c4ccc(C)o4)no3)C2)c1 (centres undefined) 2.03%
COc1ccc(/C=C2\SC(N3CCCCC3)=NC2=O)cc1OC 24.1%
O=C(CCCCCNC(=O)c1ccccc1)N/N=C/c1ccccc1 -0.75%
OC(CNCc1cccc(Br)c1)c1ccccc1 (centres undefined) 11.8%
CCN=c1scc(-c2cccs2)n1/N=C/c1cc(OC)ccc1O 2.73%
CCOc1ncccc1C(=O)OCc1ccc(C(=O)OC)cc1 18.9%
CCS(=O)(=O)n1nc(-c2cccnc2)nc1NCc1ccc(F)cc1 -0.385%
c1ccc(-c2ccccc2-c2nc(-c3cccnc3)no2)cc1 5.05%
Cc1nc(C)c(-c2ccc(SCC(=O)Nc3cccc(Cl)c3C)nn2)s1 27.2%
COc1ccc(C2=NN(C(=O)c3ccco3)C(c3ccco3)C2)cc1OC (centres undefined) 17.5%
Cc1nn2c(COc3ccc(NC(=O)C(C)C)cc3)nnc2c2ccccc12 10.4%
O=C(Nc1cccc(Cl)c1)N1CCN(c2ncccn2)CC1 -0.889%
Cn1c(=Nc2ccccc2)sc2ccccc21 7.22%
COc1ccc(-c2ccc(=O)n(CC(=O)Nc3cccc(O)c3)n2)cc1OC 25.3%
O=C(Nc1cccc(OC(F)(F)F)c1)c1ccc(-c2cccnc2)c2ccoc12 9.25%
c1ccc2c(N3CCCC3)nc(-c3ccncc3)nc2c1 7.12%
COc1cc2c(cc1OC)/C(=C/C(=O)c1ccc(NC(C)=O)cc1)NCC2 29.3%
CCc1cc2c(-c3ccccc3)cc(=O)oc2c(CN2CCOCC2)c1O 4.04%
O=C(/C=C/c1ccc([N+](=O)[O-])cc1)NCCOc1ccc(F)cc1 -0.0506%
O=C(O)CN1C(=O)/C(=C\c2cccc(OCc3ccccc3F)c2)SC1=S -0.325%
